Data as given in PubChem BioAssay AID1345083 (National Center for Advancing Translational Sciences (NCATS), 2018).
In all, about 94,000 compounds went through this assay and about 6,200 (6.6%) were called active. The shares of active, inactive and inconclusive entries below differ from those in the screen. Calls follow the shape of the dose curve; as a rule, active = well fitted inhibition curve with a large enough effect; inconclusive = small, poorly fitted or top-dose-only effect; inactive = flat fitted curve, though single readings scatter. Potencies of inconclusive entries are doubtful fits and often do not repeat.

test: Cytotoxic Profiling in HEK 293 Cell Line of Diverse Libraries Using Quantitative High-Throughput Screening; conditions: HEK 293 viability, ATP luminescence (CellTiter-Glo), 48-72 h; activity change, negative = cytotoxicity: at 115 µM (top of the series) unless noted; series mostly up to 115 µM; also: nearly all actives have a fitted effect of over 60% in size
Method in brief: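 ATP-coupled CellTiter-Glo luminescence served as viability read-out, recorded 10 min after reagent addition at room temperature. HEK 293 cells, 250 cells/well, had been incubated with pintool-transferred compound for 48 or 72 hr at 37 degree Celsius.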
% is scaled to controls: 0 for no effect and ±100 for the full control effect; potency is read from the fitted curve at half-maximal effect; tags tell the direction and shape of the fitted curve.

Structure (SMILES) | Potency | activity change, negative = cytotoxicity
CCN1CCN(c2nc3c(s2)CN(C(=O)c2ccccn2)CC3)CC1 | inconclusive: 31.6 µM [inhibitor, partial curve] | –
Cc1ccc(-c2nnc(C3CN(C(=O)c4cc(F)cc(F)c4)CC34CCOCC4)o2)cc1 (centres undefined) | inconclusive: 89.1 µM [inhibitor, single point] | –
CCc1nc2c(c(-c3ccc(Cl)cc3)n1)CN(C(=O)c1ccccc1Cl)CC2 | inconclusive: 50.1 µM [inhibitor, partial curve, poor fit] | –
COc1ccccc1-c1cccc(CN2CCCC(C(=O)Nc3cccc(Cl)c3)C2)c1 (centres undefined) | active: 25.1 µM | –
CCc1ccc(CN2C[C@@H]3C(=O)N(CCN4CCc5ccccc5C4)C(=O)[C@@H]3C2)cc1 | inconclusive: 89.1 µM [inhibitor, partial curve, poor fit] | –
c1ccc(CCc2noc(CN3CCCCC3CCn3cccn3)n2)cc1 (centres undefined) | inconclusive: 89.1 µM [inhibitor, partial curve, poor fit] | –
COc1ccc(CC(=O)N2CCN(C(=O)c3cccc(-c4cccc(OC)c4)c3)CC2)cc1 | inconclusive: 50.1 µM [inhibitor, partial curve, poor fit] | –
COc1ccccc1-c1[nH]nc2ncc(-c3ccnc(C)c3)nc12 | inconclusive: 126 µM [inhibitor, partial curve, poor fit] | –
Cc1ccc2c(n1)O[C@@H](COCc1ccccc1)CN(Cc1ccc3c(c1)OCO3)C2=O | inconclusive: 35.5 µM [inhibitor, partial curve, poor fit] | –
Cc1cccc(CN2CCn3c(nnc3[C@@H]3C[C@@H](O)CN3Cc3ccccc3)C2)c1 | – | inactive: -13.6%
O=c1n(-c2ccc(Cl)cc2)nc2n1CCN([S+](=O)([O-])c1cccs1)C2 | – | inactive: -27.3%
Cc1ccc(C(=O)N2CCCC2c2nncn2Cc2ccncc2)c(=O)[nH]1 (centres undefined) | – | inactive: 11.9%
Cc1noc(C)c1-c1cc2cc(CN(C)C)oc2c(Nc2cccnc2)n1 | active: 70.8 µM | –
Cc1cccc(OCC(=O)N2CCC(N3C(=O)CCC3C(=O)NCc3ccccc3)CC2)c1 (centres undefined) | – | inactive: -17.5%
Cc1cc(Cl)ccc1NC(=O)N1CCC(Oc2ncccc2C(=O)N2CCOCC2)C1 (centres undefined) | – | inactive: -6.25%
O=C(C1CCN(C(=O)C2CCCC2)C1)N1CCC(c2nc3ncccc3[nH]2)CC1 (centres undefined) | – | inactive: -1.17%
Cc1cnn(-c2cc(N3CCC(n4cc(C5CCCC5)nn4)CC3)ncn2)c1 | active: 44.7 µM | –
COc1cc2c(cc1-c1cccc(C(F)(F)F)c1)OCC(C)(C)CC2CO (centres undefined) | active: 31.6 µM | –
CC(=O)c1cc(CN2CCC(c3[nH]ncc3-c3ccccc3C)CC2)n(C)c1 | inconclusive: 56.2 µM [inhibitor, partial curve, poor fit] | –
